Laboratory results published in the supplement of paper PMC8728848.
This is one part of the list.

Columns and labels:
Experiment in all cases: glycan array binding signal (z-score within array); higher = stronger binding
Conditions in all cases: glycan notation: IUPAC condensed, linker removed
[1] = target: Gal3S(b1-4)[Fuc(a1-3)]GlcNAc
How it was run: (§1)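 Glycan array data came from 3228 arrays in the Consortium for Functional Glycomics database, and only arrays with an available protein sequence were kept. Glycan names were put into IUPAC-condensed notation, and columns mapping to the same glycan were averaged. The binding signal is a within-array Z-score, averaged across arrays of one protein sequence run at different concentrations or buffers and across linkers. A negative Z-score can be read as non-binding.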

[2] = target: Gal3S(b1-4)[Fuc(a1-3)]GlcNAc6S
How it was run: as §1

Gal3S4S(b1-4)GlcNAc = target: Gal3S4S(b1-4)GlcNAc
How it was run: as §1

Gal3S6S(b1-4)GlcNAc = target: Gal3S6S(b1-4)GlcNAc
How it was run: as §1

Gal3S6S(b1-4)GlcNAc6S = target: Gal3S6S(b1-4)GlcNAc6S
How it was run: as §1

Gal4S(b1-4)GlcNAc = target: Gal4S(b1-4)GlcNAc
How it was run: as §1

Gal4S6S(b1-4)GlcNAc = target: Gal4S6S(b1-4)GlcNAc
How it was run: as §1

Gal6P(b1-4)GlcNAc = target: Gal6P(b1-4)GlcNAc
How it was run: as §1

Gal6S(b1-3)GlcNAc = target: Gal6S(b1-3)GlcNAc
How it was run: as §1

Gal6S(b1-3)GlcNAc6S = target: Gal6S(b1-3)GlcNAc6S
How it was run: as §1

Gal6S(b1-4)Glc = target: Gal6S(b1-4)Glc
How it was run: as §1

Gal6S(b1-4)Glc6S = target: Gal6S(b1-4)Glc6S
How it was run: as §1

Gal6S(b1-4)GlcNAc = target: Gal6S(b1-4)GlcNAc
How it was run: as §1

Gal6S(b1-4)GlcNAc6S = target: Gal6S(b1-4)GlcNAc6S
How it was run: as §1

GalNAc(a1-3)Gal = target: GalNAc(a1-3)Gal
How it was run: as §1

GalNAc(a1-3)GalNAc = target: GalNAc(a1-3)GalNAc
How it was run: as §1

[3] = target: GalNAc(a1-3)GalNAc(b1-3)Gal(a1-4)Gal(b1-4)Glc
How it was run: as §1

[4] = target: GalNAc(a1-3)GalNAc(b1-3)Gal(a1-4)Gal(b1-4)GlcNAc
How it was run: as §1

GalNAc(b1-3)Gal = target: GalNAc(b1-3)Gal
How it was run: as §1

[5] = target: GalNAc(b1-3)Gal(a1-4)Gal(b1-4)GlcNAc
How it was run: as §1

[6] = target: GalNAc(b1-3)Gal(a1-4)Gal(b1-4)GlcNAc(b1-3)Gal(b1-4)Glc
How it was run: as §1

[7] = target: GalNAc(b1-3)Gal(a1-6)Gal(b1-4)Glc
How it was run: as §1

GalNAc(b1-3)GalNAc = target: GalNAc(b1-3)GalNAc
How it was run: as §1

GalNAc(b1-3)GlcNAc = target: GalNAc(b1-3)GlcNAc
How it was run: as §1

GalNAc(b1-4)Gal(b1-4)Glc = target: GalNAc(b1-4)Gal(b1-4)Glc
How it was run: as §1

GalNAc(b1-4)GlcNAc = target: GalNAc(b1-4)GlcNAc
How it was run: as §1

[8] = target: GalNAc(b1-4)GlcNAc(b1-2)Man
How it was run: as §1

[9] = target: GalNAc(b1-4)GlcNAc(b1-2)Man(a1-3)[GalNAc(b1-4)GlcNAc(b1-2)Man(a1-6)]Man(b1-4)GlcNAc(b1-4)GlcNAc
How it was run: as §1

[10] = target: GalNAc(b1-4)GlcNAc(b1-3)GalNAc(b1-4)GlcNAc
How it was run: as §1

GalNAc(b1-4)GlcNAc6S = target: GalNAc(b1-4)GlcNAc6S
How it was run: as §1

GalNAc(b1-6)GalNAc = target: GalNAc(b1-6)GalNAc
How it was run: as §1

GalNAc3S(b1-4)GlcNAc = target: GalNAc3S(b1-4)GlcNAc
How it was run: as §1

GalNAc3S(b1-4)GlcNAc3S = target: GalNAc3S(b1-4)GlcNAc3S
How it was run: as §1

[11] = target: GalNAc3S(b1-4)[Fuc(a1-3)]GlcNAc
How it was run: as §1

GalNAc4S6S(b1-4)GlcNAc = target: GalNAc4S6S(b1-4)GlcNAc
How it was run: as §1

GalNAc6S(b1-4)GlcNAc = target: GalNAc6S(b1-4)GlcNAc
How it was run: as §1

Glc(a1-4)Glc = target: Glc(a1-4)Glc
How it was run: as §1

[12] = target: Glc(a1-4)Glc(a1-4)Glc(a1-4)Glc
How it was run: as §1

B1: UDA (Urtica dioica), P11218 (protein)
chain: MMMRFLSAVVIMSSAMAVGLVSAQRCGSQGGGGTCPALWCCSIWGWCGDSEPYCGRTCENKCWSGERSDHRCGAAVGNPPCGQDRCCSVHGWCGGGNDYCSGSKCQYRCSSSVRGPRVALSGNSTANSIGNVVVTEPLFDQMFSHRKDCPSQGFYSYHSFLVAAESFPAFGTIGDVATRKREVAAFLAHISQATSGERSDVENPHAWGLCHINTTTVTENDFCTSSDWPCAAGKKYSPRGPIQLTHNFNYGLAGQAIGEDLIQNPDLVEKDPIISFKTALWFWMSQHDNKPSCHDIVLNANSAANRIPNKGVIGNIISRAFGHDDFAVRSSSIGFYKRYCDMLGVSYGHDLKYWFDNTPSSEFQRIQMRVAA
- glycan array binding signal (z-score) [1]: -0.184
- glycan array binding signal (z-score) [2]: 0.367
- glycan array binding signal (z-score) (Gal3S4S(b1-4)GlcNAc): 0.273
- glycan array binding signal (z-score) (Gal3S6S(b1-4)GlcNAc): -0.177
- glycan array binding signal (z-score) (Gal3S6S(b1-4)GlcNAc6S): -0.179
- glycan array binding signal (z-score) (Gal4S(b1-4)GlcNAc): 0.416
- glycan array binding signal (z-score) (Gal4S6S(b1-4)GlcNAc): -0.174
- glycan array binding signal (z-score) (Gal6P(b1-4)GlcNAc): -0.183
- glycan array binding signal (z-score) (Gal6S(b1-3)GlcNAc): -0.184
- glycan array binding signal (z-score) (Gal6S(b1-3)GlcNAc6S): -0.181
- glycan array binding signal (z-score) (Gal6S(b1-4)Glc): -0.188
- glycan array binding signal (z-score) (Gal6S(b1-4)Glc6S): -0.182
- glycan array binding signal (z-score) (Gal6S(b1-4)GlcNAc): -0.18
- glycan array binding signal (z-score) (Gal6S(b1-4)GlcNAc6S): -0.177
- glycan array binding signal (z-score) (GalNAc(a1-3)Gal): -0.19
- glycan array binding signal (z-score) (GalNAc(a1-3)GalNAc): -0.191
- glycan array binding signal (z-score) [3]: -0.179
- glycan array binding signal (z-score) [4]: -0.177
- glycan array binding signal (z-score) (GalNAc(b1-3)Gal): -0.174
- glycan array binding signal (z-score) [5]: -0.139
- glycan array binding signal (z-score) [6]: -0.166
- glycan array binding signal (z-score) [7]: -0.176
- glycan array binding signal (z-score) (GalNAc(b1-3)GalNAc): -0.181
- glycan array binding signal (z-score) (GalNAc(b1-3)GlcNAc): -0.185
- glycan array binding signal (z-score) (GalNAc(b1-4)Gal(b1-4)Glc): -0.176
- glycan array binding signal (z-score) (GalNAc(b1-4)GlcNAc): 0.054
- glycan array binding signal (z-score) [8]: -0.181
- glycan array binding signal (z-score) [9]: -0.111
- glycan array binding signal (z-score) [10]: -0.05
- glycan array binding signal (z-score) (GalNAc(b1-4)GlcNAc6S): 0.203
- glycan array binding signal (z-score) (GalNAc(b1-6)GalNAc): -0.11
- glycan array binding signal (z-score) (GalNAc3S(b1-4)GlcNAc): 0.062
- glycan array binding signal (z-score) (GalNAc3S(b1-4)GlcNAc3S): -0.187
- glycan array binding signal (z-score) [11]: -0.177
- glycan array binding signal (z-score) (GalNAc4S6S(b1-4)GlcNAc): -0.188
- glycan array binding signal (z-score) (GalNAc6S(b1-4)GlcNAc): -0.185
- glycan array binding signal (z-score) (Glc(a1-4)Glc): -0.183
- glycan array binding signal (z-score) [12]: -0.176
